# Assay results reported in the supplement of paper PMC10338343.
# ± gives the standard deviation. In all, about 3,000 sequences were measured (“pre-steady-state target cleavage rate”: median about 0.0079, highest 2% from about 0.2 on). This is a selection; strong and weak results do not stand in their true shares.
# Tested on: MILI (PIWIL2) piRISC loaded with piRNA #2 (26 nt)
# Test: pre-steady-state target cleavage rate (min^-1); MIWI and MILI are mouse PIWI proteins and EfPiwi is from a freshwater sponge; tags in brackets are library labels; higher = faster piRNA-guided slicing of the target
# Conditions: guide: piRNA #2 5'p-UUAGGUAACCCAGUAGAUCCAGAGGA; auxiliary factor: 500 nM mouse GTSF1
# Experimental: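 Cleave-'n-Seq: a library of target RNAs (target site embedded in constant flanks, ACAGCATTCCGCGTTAGTGATATCCG... 5' flank; DNA-blocked outside the site) at 0.1 nM was incubated with 1 nM active mouse MILI or MIWI piRISC (synthetic 5'-monophosphorylated piRNA guide) with or without 500 nM mouse GTSF1 at 33 °C for 1 min to 16 h. Uncleaved targets were sequenced and normalised to non-target controls, and the pooled three trials were fitted to a burst-and-steady-state model to give the pre-steady-state cleavage rate (min^-1; k3 is constrained to at most 1e-4). Sequence is the target site only; target names encode pairing extent (gX:gY) and contiguous / 1-mismatch / 2-mismatch / bulge geometry. Fits with R² ≤ 0 are excluded.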
row,Sequence,pre-steady-state target cleavage rate
1,CUUAUCCUCUGGAUGUACUGGGUUUCCUAA,0.105 ± 0.04
2,CUUAAGCUGUGGAUCUACAGGGUUACCUAA,0.0785 ± 0.012
3,CUUAAGGAGUGGAUCUACUGGGGUUACCUAA,0.00877 ± 0.003
4,CUUAAGCUCUGAUCUACUGGGUUACCUAA,0.0427 ± 0.013
5,CUUAACCUCAGGAUCUACUGGGUUACCUUA,0.0721 ± 0.016
6,CUUAAGCUCUGCUUCUACUGGGUUACCUAA,0.0415 ± 0.0097
7,CUUAACCUCGGAUCUACUGGGUUACCUAA,0.103 ± 0.031
8,CUUAUCCUCUAGAUCUACUGGGUUACCUAA,0.224 ± 0.034
9,CUUAAGGUCUGGAUCUAGAGGGUUACCUAA,0.0495 ± 0.011
10,CUUAAGGAGACGAUCUACUGGGUUUACCUAA,0.00481 ± 0.0031
11,CUUAAGGUGUGGAUCUUCUGGGUUACCUAA,0.0242 ± 0.012
12,CUUAUCCUCUGGAUCUACUGGGUAACCUUA,0.181 ± 0.055
13,CUUAUCCUCUGAUCUACUGGGUUACCUAA,0.123 ± 0.029
14,CUUAUCCUCUGGAUCUACUGCGUUACCUUA,0.0128 ± 0.0052
15,CUUAUCCUCUGGAUCUACUGGGUUACCAUAA,0.15 ± 0.026
16,CUUAAGGACUGGAUCUACACGGUUACCUAA,0.00745 ± 0.0049
17,CUUAUCCUCUCCAUCUACUGGGUUACCUAA,0.132 ± 0.021
18,CUUAAGGAGAGGAUCUACUGGGUUAUCCUAA,0.00736 ± 0.004
19,CUUAUCCUCUGGAUCUGCUGGGUUACCUAA,0.0654 ± 0.015
20,CUUAAGGACUGGAUCUACUGGGGUUACCUAA,0.00846 ± 0.0074
21,CUUAAGGUCUCGAUCUACUCGGUUACCUAA,0.00571 ± 0.0029
22,CUUAAGCUCUGGAUCUACUGGUUUACCUAA,0.00746 ± 0.0029
23,CUUAAGGAGUGGUUCUACUGGGUUACCUAA,0.0254 ± 0.0091
24,CUUAAGCUCUGGAUCUACUGGGUUAGCUUA,0.0559 ± 0.016

row,Sequence,pre-steady-state target cleavage rate
1,CUUAUGCUCUGGAUCUACUGGGUUACCAAA,0.1 ± 0.02
2,CUUAAGCUCUGGAUCUACUGGGAUACCUUA,0.0439 ± 0.014
3,CUUAACCUCUGGAUCUACUGCGUUACCAAA,0.0107 ± 0.0051
4,CUUAAGGACUGGAUCUACUGGGUUACCUA,0.0445 ± 0.017
5,CUUAAGCUCUGGAUCUACUGGGUUUGGUAA,0.00974 ± 0.0055
6,CUUAUCCUCUCGAUCUACUGGGUUACCUUA,0.174 ± 0.029
7,CUUAAGGAGUGGAUAUACUGGGUUACCUAA,0.0213 ± 0.01
8,CUUAAGGAGACCUACUACUGGGUUACCUAG [g2:g16:cont:t1G],< 0.0001
9,CUUAAGGAGUGGAUCUACUGGGUGACCUAA,0.00657 ± 0.0048
10,CUUAAGCUCUGGAUCUACAGCGUUACCUAA,0.0101 ± 0.0043
11,CUUAACCACUGGAUCUACUGGGUUAGCUAA,0.00628 ± 0.0054
12,CUUAAGGAGACGAUCUACUGGGUUACCUAAA,0.00784 ± 0.0049
13,CUUAAGGUCUCGGAUCUACUGGGUUACCUAA,0.0556 ± 0.012
14,CUUAACCUCUGGAUCUACUAGGUUACCUAA,0.0639 ± 0.017
15,CUUAAGGUCGGGAUCUACUGGGUUACCUAA,0.04 ± 0.022
16,CUUAAGGAGACCUACAACUGGGUUACGUAA,< 0.0001
17,CUUAAGGUCUGGACCUACUGGGUUACCUAA,0.031 ± 0.0078
18,CUUAAGGAGACGAUCUACUGGGUUACCUA,0.00514 ± 0.0036
19,CUUAACCUCUGGUAGUACUGGGUUACCUAA,0.078 ± 0.025
20,CUUAAGGACAUGGAUCUACUGGGUUACCUAA,0.0309 ± 0.012
21,CUUAAGGUCUGGAUCUACUGGGUUACCUAC [g2:g23:cont:t1C],0.0853 ± 0.013
22,CUUAAGGACAGCAUCUACUGGGUUACCUAA,0.0348 ± 0.014
23,CUUAUCGUCUGGAUCUAGUGGGUUACCUAA,0.0211 ± 0.0056
24,CUUAACCUCUCGAUCUACUCGGUUACCUAA,0.00465 ± 0.0023

row,Sequence,pre-steady-state target cleavage rate
1,CUUAAGGUCUCGAUCUAGUGGGUUACCUAA,0.0272 ± 0.0088
2,CUUAACCUCUGGAUCUAGUGGGUAACCUAA,0.0212 ± 0.0064
3,CUUAACCUGUGGAUCUACUGGGAUACCUAA,0.0128 ± 0.0049
4,CUUAAGGACUGGAUCUACUGGGUUACGUAA,0.00898 ± 0.0079
5,CUUAAGGUCUGGUUCAACUGGGUUACCUAA,0.038 ± 0.012
6,CUUAAGCUCUGGUCUACUGGGUUACCUAA,0.154 ± 0.06
7,CUUAACCUCAGGAUCUAGUGGGUUACCUAA,0.0644 ± 0.014
8,CUUAAGCUCAGCAUCUACUGGGUUACCUAA,0.119 ± 0.035
9,CUUAAGGACUUGGAUCUACUGGGUUACCUAA,0.0239 ± 0.0091
10,CUUAAGCUGCUGGAUCUACUGGGUUACCUAA,0.0417 ± 0.015
11,CUUAACCUAUGGAUCUACUGGGUUACCUAA,0.108 ± 0.016
12,CUUAACCUCUCGAUCAACUGGGUUACCUAA,0.0682 ± 0.013
13,CUUAAGCUCUGGAUCUACUGGGUAUGCUAA,0.055 ± 0.016
14,CUUAUCCUCUCGAUCUACUGGCUUACCUAA,0.00464 ± 0.0021
15,CUUAUCCUCUGGAUCUUCUGGGAUACCUAA,0.0466 ± 0.014
16,CUUAUCCUCAGCAUCUACUGGGUUACCUAA,0.271 ± 0.06
17,CUUAAGCUCUGGAUCUUGUGGGUUACCUAA,0.00903 ± 0.0046
18,CUUAAGGACUGGAUGUACUGGGUUACCUUA,0.0218 ± 0.018
19,CUUAAGCUCUGGAUCAACAGGGUUACCUAA,0.0282 ± 0.0061
20,CUUAAGGACUAGGAUCUACUGGGUUACCUAA,0.0111 ± 0.0071
21,CUUAAGGUCUUGAUCUACUGGGUUACCUAA,0.0869 ± 0.017
22,CUUAACCUGUGGUUCUACUGGGUUACCUAA,0.0336 ± 0.0095
23,CUUAUCCUCUCGAUCUUCUGGGUUACCUAA,0.166 ± 0.026
24,CUUAUGCUCUGGAUCUACUGCGUUACCUAA,0.0127 ± 0.0036
